Sequences with one replicate were seen in a single cluster, so their values are uncertain.
System: ATP
Test: switch fluorescence ratio, 500 uM ATP over buffer (Cy3 cluster intensity, sum of 5 cycles each) (fold (ratio)); higher = stronger signal-on switching upon ATP binding; sequences stand for … in TCGTCGGCAGCGTCAGATGTGTATAAGAGACAGTTTTTTTTTTTTTTTTTTTTTTTTT…TC
Conditions: aptamer strand: ATP DNA aptamer (quencher-CACCTGGGGGAGTATTGCGGAGGAAGG + anchor), 100 nM annealed; ATP concentration: 500 uM; one replicate
Procedure, shortened: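 Between each of five buffer/ATP cycles, the flow-cell was stripped with NaOH and re-annealed. Each cycle imaged Cy3-labelled switching-strand clusters, annealed to 100 nM quencher-labelled ATP aptamer on a modified Illumina MiSeq flow-cell, first in selection buffer and then after 15 min with 500 uM ATP at 22 °C. The fluorescence ratio is summed target-cycle over summed buffer-cycle Cy3 intensity per cluster, averaged per switch-domain sequence, with clusters outside 100-1000 RFU excluded.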
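Also: ATP exposure 15 min at 22 °C before imaging.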

Sequence	switch fluorescence ratio
TTTCAAACGC	1.2
TAGGATGATA	1.01
TATTAATGCG	1.04
TAGAAGAATA	1.03
GGCACGCTTG	1
TCTTGAGTAT	1.02
TGTATATGAA	1.01
GTGGTTATTG	0.997
TCTTGCAA	2.64
CACATTAGGA	1.05
ATCGTTGAAA	1
GTGTACGGCA	1.07
CGATTATACC	1.14
TCGTGGAAAG	0.939
CGTATTAAG	0.962
TGTCTTAGCA	1.01
CTACTCACCT	1.4
AAGGTAAATT	1.02
TAAGGAATAG	1.1
TCTAAGTAG	0.996
ACTAGGCGA	1.01
TTTCGGAGAC	1.03
AATGACTTGG	0.99
GTTGACTTGT	1.01
AAGAACACTT	1
CCCATCGTAT	1.02

Sequence	switch fluorescence ratio
CGCTATAATA	1.25
TATTAGCTGT	0.987
CCTGGCTATT	1.17
TTGCTGACTA	1.01
ACTCCCATAT	3.19
CGTCTGCCA	1.07
GTAGTGGACA	1
GACAAAAGTT	0.985
TATAGGACCA	1.02
AGAGGATCG	1.15
TGCTTGGAAG	1.02
CCATCGTTT	1.04
TGTGTCTTAG	0.936
CATAAATTTT	1.02
CATTTTTACA	0.98
TAGGGCTAAT	0.972
TAGGCTGCTT	0.964
ACTAATATG	1.03
GGGGCAACAT	1.04
AGTATCACGC	1.03
AGCCCCAGTT	1.14
CCGTCTGCTA	1.67
CCACCAACGG	1.06
GGTAGAGTGG	1.04
CCTGCGGTCA	1.17
TAGTGGTGCG	1.01

Sequence	switch fluorescence ratio
TTCGTGCTAT	1.03
AGGTAAATAC	1.8
GCCTTTGCTT	0.98
GCTAGAAGA	1.04
TTTTGGTATC	0.991
TATCAACGGA	1.04
GCCCCTACAC	1.02
CTAACGTCTT	0.97
CAGTGTACCC	1.18
AACGCGCCAG	0.979
GGTGTTCTAT	0.996
ACGGGAAATC	1.06
TACGTATTCG	1.02
CATAAAAACG	1.38
AGGGGTGCG	0.955
TAGGAAAGCT	1
ATCGTTAGCA	0.984
GTACTATCGG	1.01
TTCGATGCGA	1.03
CATTCTTGG	0.947
CTCGTGAATA	1.05
AGTTTTTAAC	1.01
GCAATCGTTT	1.01
AGCTGGAGCG	1.03
TGTCTTACTA	1.02
AATACAGA	1.02

Sequence	switch fluorescence ratio
ATATTGCGCG	0.996
ACATATTCAC	1.07
TGTGATCGCT	0.968
CTGCTAGGGC	1.15
TCGTAGTTTA	1.04
GGGGGATAAC	1.23
TTTCAAGGTA	1.01
CAGACCACAG	1.09
GGGCCATTAG	1.01
GGTCCCTAGT	0.974
GAAATAAACT	1.02
GTTATTTTTC	0.957
AGGCGTACGC	1.03
AAAAGGCCG	0.995
GCGTACGTTG	1.05
AAGCGCACTG	1.08
TCTCGCAAGT	3.42
CCTATCTTGT	1.01
CGATGATAGC	1.05
CATTATTCTG	1.02
GATATAGTT	0.988
TTAAGCGCCG	0.998
CTCGTCGGTA	1.02
CGTACCTTGG	1.02
TCGAACACA	1.04
GCACCTAGGG	0.973

Sequence	switch fluorescence ratio
TTCGGCCAGG	1.19
TGAGAAATGT	0.976
CGAAAGGATC	1.03
CATGCTTCTA	1.04
TAGAGGTGTT	1.02
GATTATTATG	1.02
CGTAAGCGGG	0.992
TGCATCTTGG	1.05
TTGCGTTAC	2.62
ATATCAGCCC	0.978
AATGCTCCCT	1.76
AGGGTCTGAT	0.998
ATTTACTGAC	1.24
ATACACGAAC	1.49
CAACTTAAAC	1.06
TGTTGATTAA	0.985
AACAGCAAAT	1.04
CTTGTTAACT	0.981
GTTGTACGGC	0.992
GTCTGATAGA	0.988
TATCGGTAGT	0.954
TAGGAGGAT	0.991
TCTATCATCG	0.974
CGCCGATA	1.02
AACTATGCTG	1.07
AAGATCTTTA	1.03

Sequence	switch fluorescence ratio
ACACCTGGAA	1.07
TTCATGACTC	1.06
AAGGTTATGA	1.02
GAATAAACGG	1.12
CTGTTTGCGT	1.06
TTGAACATAC	1.28
TCCAGATCTC	0.978
CTAAAAGTCG	1.05
TTATTGTCGT	0.996
TAAACGTCTG	1.04
TGGGTGTCT	0.978
CGAATAGTAT	1.03
CATTTTGGGG	1.06
ATCGTGGCAC	0.981
AAATTGCCAT	1.02
GTGTGGGGTG	1.03
TTTATAGAAT	0.951
CTGACGCCGA	1.6
GTTCCGTCGC	1.4
TTCTCCGTGT	1.77
CACAACCATT	1.03
CACGGTCGGA	0.94
ACTTTAGCCG	1.11
CTGTGTTCGT	1.01
ACTAGTTTGA	1
CCAGTGATCA	0.985

Sequence	switch fluorescence ratio
TTGCAATCCA	2.85
GTATATATGC	1
GCATAGATGG	1.02
GCGCCGAAAG	1.01
GACAGGCTCG	1.05
GTCGACTGAG	1.01
TGTTATGAAT	1.03
AGACTTCAAG	1.01
GTTCTAGAGC	1.07
CTTCGTCCCA	2.43
CACGTCTGCG	0.958
ACGTTTTTAT	1
TCTATGCGAG	1
TACAAAAATG	1.02
TTTGACGCT	1.12
GGACTGAGAG	0.988
GGGCAGCCTG	1.01
GGAATTAGAA	0.983
ATACTACTTA	1.02
CACTTCTA	0.997
TTCATGAAGG	1
ATAGGATCGA	1.17
GCTAGCATCG	0.995
TAGTAAAGC	1.04
TTTCACGTAT	1.64
ACCGCGCTGC	1.54

Sequence	switch fluorescence ratio
CATATCACTT	1.02
GAAAAATTCT	1.04
GCCTAATAA	1.07
ACTACGTGGC	1.78
CCTTAATTAC	2.06
CTCTTGGATA	0.95
GTTATTATAA	1
ACAGAATCTG	1.01
CAGTTGTTCT	1.05
ACGTCAAATC	1.36
GACACCTGGG	1
TAAGGACATC	1.06
TGAACAGTA	1.01
GATGTACTTT	1.04
AGACAAGGTG	1.04
TGAAAGTGGG	0.963
TAGTGGGTAT	1.01
TAACAAAAGT	1.08
GATAATAAGA	0.952

Reference: the supplement of paper PMC10126150
